From a collection of fitness landscapes (doi:10.1016/j.celrep.2020.107928)
Whole data set: some 81,000 sequences, median “one-hybrid fitness for binding parS DNA” near -0.17, cut for the highest 2% near 0.51. The list shows a part of the results.

B1: Caulobacter ParB omega fusion; a variant is named by its letters at X, in order, B8GW30 (parent)
chain: MESVVVGEPGMSEGRRGLGRGLSALLGEVDAAPAQAPGEQLGGSREAPIEILQRNPDQPRRTFREEDLEDLSNSIREKGVLQPILVRPSPDTAGEYQIVAGERAWRAAQRAGLKTVPIMVRELDDLAVLEIGIIENVQRADLNVLEEALSYKVLMEKFERTQENIAQTIGKSXSHVANXMRLLXLPDEVQSYLVSGELTAXHARAIAAAADPVALAKQIIEGGLSVRETEALARKAPNLSAGKSKGGRPPRVKDTDTQALESDLSSVLGLDVSIDHRGSTGTLTITYATLEQLDDLCNRLTRGI

Variants of: B1
Experiment: one-hybrid fitness for binding parS DNA (scaled: cognate 1, non-cognate 0); higher = stronger binding
Conditions: with parS DNA site
Procedure, shortened: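 On M9-minus-histidine containing 0.1 mM IPTG and 5 mM 3-AT, E. coli USO cells with a HIS3 reporter, site 19 bp from the promoter, grew 48 hours at 37°C to select Caulobacter ParB libraries randomised at four specificity codons. Plasmids from before and after were Illumina-sequenced, with three replicate libraries pooled and variants under 10 reads left out. Fitness is the log change in variant-to-wild-type read ratio, rescaled against cognate and non-cognate.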

Variant	one-hybrid fitness for binding parS DNA
SAFT	≤ 0.2
PLQS	≤ 0.2
SWGR	≤ 0.2
MRGG	≤ 0.2
EFAT	≤ 0.2
PGME	≤ 0.2
ISRH	≤ 0.2
PMTS	≤ 0.2
CMTT	≤ 0.2
HSQL	≤ 0.2
HRSN	≤ 0.2
FPLS	≤ 0.2
RAGC	0.968
RDHK	≤ 0.2
MGID	≤ 0.2
TFIS	≤ 0.2
RAES	0.948
HYFN	≤ 0.2
GYEP	≤ 0.2
VVDR	≤ 0.2
VDKH	≤ 0.2
RINW	0.205
DWKY	≤ 0.2
SCGI	≤ 0.2

Variant	one-hybrid fitness for binding parS DNA
YYNT	≤ 0.2
PRGL	≤ 0.2
IGRT	≤ 0.2
NAIM	≤ 0.2
VTCK	≤ 0.2
QWTM	≤ 0.2
SNGA	≤ 0.2
DFHC	≤ 0.2
WDRG	≤ 0.2
AHPQ	≤ 0.2
YIYR	≤ 0.2
YVSS	≤ 0.2
YISW	≤ 0.2
SNNL	≤ 0.2
RNNW	≤ 0.2
ARRQ	≤ 0.2
KTKW	≤ 0.2
SDPL	≤ 0.2
PETA	≤ 0.2
KNDG	≤ 0.2
CTNA	≤ 0.2
IMHC	≤ 0.2
EKSD	≤ 0.2
QSFY	≤ 0.2

Variant	one-hybrid fitness for binding parS DNA
KIRY	≤ 0.2
SMRT	≤ 0.2
MSVG	≤ 0.2
RRFG	0.831
QNCN	≤ 0.2
GIVG	≤ 0.2
PQND	≤ 0.2
EFRY	≤ 0.2
QQDK	≤ 0.2
GHQR	≤ 0.2
YALC	≤ 0.2
NALA	≤ 0.2
MPRS	≤ 0.2
ASAS	≤ 0.2
LLAI	≤ 0.2
PQWG	≤ 0.2
LCVN	≤ 0.2
YVET	≤ 0.2
VANS	≤ 0.2
RVAF	0.259
RHKK	≤ 0.2
HKNP	≤ 0.2
RNCG	0.771
ALPE	≤ 0.2

Variant	one-hybrid fitness for binding parS DNA
SEDR	≤ 0.2
QSEY	≤ 0.2
RTPH	≤ 0.2
TRLL	≤ 0.2
LKNF	≤ 0.2
TNYM	≤ 0.2
SIVT	≤ 0.2
YVFT	≤ 0.2
VAER	≤ 0.2
LVVF	≤ 0.2
FMAS	≤ 0.2
MAQR	≤ 0.2
VADM	≤ 0.2
EKHY	≤ 0.2
VCPC	≤ 0.2
TTFS	≤ 0.2
AVEG	≤ 0.2
LDQR	≤ 0.2
RDNI	≤ 0.2
LLDS	≤ 0.2
ECAT	≤ 0.2
RAHS	0.985
HFTC	≤ 0.2
QVLH	≤ 0.2

Variant	one-hybrid fitness for binding parS DNA
DWNG	≤ 0.2
MPAL	≤ 0.2
RFYH	0.256
YRDC	≤ 0.2
PIPP	≤ 0.2
RVPR	≤ 0.2
CQWS	≤ 0.2
ATPE	≤ 0.2
PPAC	≤ 0.2
RHDL	≤ 0.2
PWFS	≤ 0.2
TVAN	≤ 0.2
DLTY	≤ 0.2
TARQ	≤ 0.2
QGFR	≤ 0.2
VDGC	≤ 0.2
TGTY	≤ 0.2
NPRM	≤ 0.2
TSDC	≤ 0.2
SPSR	≤ 0.2
ESDV	≤ 0.2
FVPV	≤ 0.2
ARMK	≤ 0.2
SVDG	≤ 0.2

Variant	one-hybrid fitness for binding parS DNA
FSHL	≤ 0.2
TKNC	≤ 0.2
EMLY	≤ 0.2
HTAF	≤ 0.2
WVLS	≤ 0.2
LLLH	≤ 0.2
QTTL	≤ 0.2
MCNF	≤ 0.2
NAMN	≤ 0.2
RFTH	≤ 0.2
SKTD	≤ 0.2
DRRG	≤ 0.2
ITSI	≤ 0.2
NESN	≤ 0.2
SQTR	≤ 0.2
AIHR	≤ 0.2
EWYV	≤ 0.2
SYPR	≤ 0.2
YPRS	≤ 0.2
AHVS	≤ 0.2
PPSQ	≤ 0.2
GPNR	≤ 0.2
TPDP	≤ 0.2
RFMY	0.454

Variant	one-hybrid fitness for binding parS DNA
NLFY	≤ 0.2
PSLP	≤ 0.2
NCMW	≤ 0.2
TNQC	≤ 0.2
YFER	≤ 0.2
KVDW	≤ 0.2
ATGY	≤ 0.2
TERN	≤ 0.2
KYET	≤ 0.2
LRTR	≤ 0.2
PEMY	≤ 0.2
DGHG	≤ 0.2
FGLG	≤ 0.2
QEPT	≤ 0.2
GCQS	≤ 0.2
TIFC	≤ 0.2
IASM	≤ 0.2
TACE	≤ 0.2
LAMD	≤ 0.2
LWRC	≤ 0.2
RMVI	≤ 0.2
PMTT	≤ 0.2
GIIN	≤ 0.2
REVV	≤ 0.2

Variant	one-hybrid fitness for binding parS DNA
YNSM	≤ 0.2
RSWY	0.422
NEPI	≤ 0.2
PLET	≤ 0.2
RYII	≤ 0.2
PENS	≤ 0.2
CNKS	≤ 0.2
SVQA	≤ 0.2
DPNV	≤ 0.2
IIMV	≤ 0.2
SKCE	≤ 0.2
LDIG	≤ 0.2
KGPQ	≤ 0.2
QKRN	≤ 0.2
LLCA	≤ 0.2
PWHG	≤ 0.2
AVHS	≤ 0.2
DLMV	≤ 0.2
NRPM	≤ 0.2
NEQC	≤ 0.2
CRCS	≤ 0.2
DMAG	≤ 0.2
GCPG	≤ 0.2
AKHI	≤ 0.2

Variant	one-hybrid fitness for binding parS DNA
SQPM	≤ 0.2
TYAW	≤ 0.2
LADD	≤ 0.2
RVIL	≤ 0.2
RFSK	≤ 0.2
APCA	≤ 0.2
ERQL	≤ 0.2
LYHP	≤ 0.2
IMCV	≤ 0.2
AEAD	≤ 0.2
GCIT	≤ 0.2
AGPN	≤ 0.2
DTCS	≤ 0.2
LMCC	≤ 0.2
FMGR	≤ 0.2
HGWT	≤ 0.2
SICD	≤ 0.2
RSMQ	≤ 0.2
IPNR	≤ 0.2
EKRL	≤ 0.2
NEKS	≤ 0.2
QTKW	≤ 0.2
QAIM	≤ 0.2
FMLV	≤ 0.2

Variant	one-hybrid fitness for binding parS DNA
RPTW	≤ 0.2
FTDG	≤ 0.2
LCAR	≤ 0.2
AHMD	≤ 0.2
IDSS	≤ 0.2
TGNY	≤ 0.2
NSVY	≤ 0.2
WIIF	≤ 0.2
LTTS	≤ 0.2
RFPF	≤ 0.2
KSWS	≤ 0.2
RNKK	≤ 0.2
DMVV	≤ 0.2
YPLG	≤ 0.2
PHNS	≤ 0.2
WYNS	≤ 0.2
DGSR	≤ 0.2
VDPG	≤ 0.2
PKYT	≤ 0.2
VSQS	≤ 0.2
HFEY	≤ 0.2
HVFR	≤ 0.2
HCQG	≤ 0.2
IPGV	≤ 0.2

Variant	one-hybrid fitness for binding parS DNA
ARVQ	≤ 0.2
RLFK	≤ 0.2
QLES	≤ 0.2
DHCR	≤ 0.2
QLQV	≤ 0.2
FLNT	≤ 0.2
MPEL	≤ 0.2
ASRL	≤ 0.2
GQNV	≤ 0.2
KQQS	≤ 0.2
CSRR	≤ 0.2
QICT	≤ 0.2
QDEP	≤ 0.2
NQYC	≤ 0.2
TPNF	≤ 0.2
PQRC	≤ 0.2
RTAI	≤ 0.2
QRRE	≤ 0.2
FPPA	≤ 0.2
QFKY	≤ 0.2
PWWF	≤ 0.2
HPQL	≤ 0.2
CYWT	≤ 0.2
KTAN	≤ 0.2

Variant	one-hybrid fitness for binding parS DNA
RKIT	0.675
CRTW	≤ 0.2
YFCR	≤ 0.2
VGDT	≤ 0.2
RQHT	0.892
LRWS	≤ 0.2
ELGD	≤ 0.2
QCKI	≤ 0.2
CKCF	≤ 0.2
QDFV	≤ 0.2
TFPW	≤ 0.2
CNNS	≤ 0.2
QHRV	≤ 0.2
VLTT	≤ 0.2
HHLA	≤ 0.2
NDIG	≤ 0.2
QHWS	≤ 0.2
SSPY	≤ 0.2
PWLM	≤ 0.2
FFRG	≤ 0.2
ARNQ	≤ 0.2
QVSM	≤ 0.2
KRPM	≤ 0.2
ARGR	≤ 0.2

Variant	one-hybrid fitness for binding parS DNA
SIQC	≤ 0.2
TGWT	≤ 0.2
CMKV	≤ 0.2
RTEH	0.208
SSCE	≤ 0.2
LRPP	≤ 0.2
LPKY	≤ 0.2
QQGK	≤ 0.2
PSKI	≤ 0.2
QFHD	≤ 0.2
DGSQ	≤ 0.2
DFHT	≤ 0.2
GCEA	≤ 0.2
QTKE	≤ 0.2
GRPL	≤ 0.2
RQPF	≤ 0.2
AAHR	≤ 0.2
WTYL	≤ 0.2
